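Method: 48-hour compound exposure of cells in 96-well plates, five concentrations, linear interpolation of endpoints. Abbreviation: GI50, concentration required for 50% inhibition of growth. TGI marks complete inhibition of growth.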 Activity calls are given as the source filed them.
How the values were obtained:
Assay in all cases: NCI anticancer screen, dose series, 48 h
CCRF-CEM leukemia = tested on: CCRF-CEM leukemia
HOP-92 NSCLC = tested on: HOP-92 NSCLC
NCI-H226 lung = tested on: NCI-H226 lung
NCI-H23 lung = tested on: NCI-H23 lung
SR leukemia = tested on: SR leukemia
UACC-257 melanoma = tested on: UACC-257 melanoma

In the case of `COc1ccccc1Oc1nccc(-c2c(-c3ccc(F)cc3)ncn2C2CCNCC2)n1`, the GI50 (CCRF-CEM leukemia) is reported as > 25 µM, the TGI (CCRF-CEM leukemia) is reported as > 25 µM and the GI50 (HOP-92 NSCLC) is reported as “inactive”. The TGI (HOP-92 NSCLC) was > 25 µM, the GI50 (NCI-H226 lung) was “inactive” and the TGI (NCI-H226 lung) was > 25 µM. For the same molecule, the GI50 (NCI-H23 lung) was > 25 µM, the TGI (NCI-H23 lung) was > 25 µM and the GI50 (SR leukemia) was “inactive”. The TGI (SR leukemia) was 18.7 µM, the GI50 (UACC-257 melanoma) was “inactive” and the TGI (UACC-257 melanoma) was > 25 µM.
